Among the test systems are 501Mel; A101D; A2058; A375.
Holding throughout (assay): cell count relative to DMSO control; melanoma cells; higher = more viable cells
Holding throughout (details): library dose: standard library concentration; 72 h

The other results are listed elsewhere or left out. Many values rest on one well or one pass, so single values are uncertain.
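Note: cells treated in 1,536-well plates, then fixed and DAPI-stained, with nuclei counted from automated high-throughput microscope images.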

Consider `CN(C)S(=O)(=O)c1ccc2c(c1)/C(=C/c1cc3c([nH]1)CCCC3)C(=O)N2` + O=S(=O)(c1ccccc1)N(CC(F)(F)F)c1ccc(C(O)(C(F)(F)F)C(F)(F)F)cc1 [T0901317] (first compound 2 µM, partner dose 7 µM), for which the cell count in the experiment with 501Mel was found to be 58.4%; in the experiment on A101D it was 67.4%; in the experiment with A2058 it was 63.5%; with A375 it was 121%.
The matching figures for `Cc1nc(Nc2ncc(C(=O)Nc3c(C)cccc3Cl)s2)cc(N2CCN(CCO)CC2)n1` [dasatanib] + COC(=O)c1sccc1S(=O)(=O)Nc1ccc(Nc2ccccc2)cc1OC [GSK0660] (first compound 0.02 µM, partner dose 5 µM): 110%, 67%, 59.1% and 62.5%.
The matching figures for `OCCn1cc(-c2cnc3nnn(Cc4ccc5ncccc5c4)c3n2)cn1` + COc1cc(N2CCC(N3CCN(C)CC3)CC2)ccc1Nc1ncc(Cl)c(Nc2ccccc2S(=O)(=O)C(C)C)n1 [NVP-TAE684] (first compound 5 µM, partner dose 0.4 µM): 80.3%, 86.7%, 59.7% and 81.2%.
The matching figures for `NC(=O)Nc1cc(-c2cccc(F)c2)sc1C(=O)N[C@H]1CCCNC1` + Oc1cc(-c2nc(-c3ccccc3)[nH]c2-c2ccncc2)ccc1Cl [L779450] (first compound 0.1 µM, partner dose 1 µM): 80.5%, 76.5%, 98% and 51.7%.
On to `CN(C)S(=O)(=O)c1ccc2c(c1)/C(=C/c1cc3c([nH]1)CCCC3)C(=O)N2` + CCCCCCCCCCCC1=C(O)C(=O)C=C(O)C1=O [Embelin] (first compound 2 µM, partner dose 6 µM), for which the cell count was found to be 78% in the experiment with 501Mel, 70.5% in the experiment with A101D, 75.4% in the experiment with A2058 and 153% in the experiment on A375.

The record behind these values is the supplement of paper PMC4604168 (melanoma cell lines).
